# Source: the supplement of paper PMC8728848
# The list shows a part of the results.
# Assays:
# Experiment in all cases: glycan array binding signal (z-score within array); higher = stronger binding
# Conditions in all cases: glycan notation: IUPAC condensed, linker removed
# [1] = target: Man(a1-2)Man(a1-2)Man(a1-6)[Man(a1-3)]Man
# Procedure, shortened: (§1)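 Glycan array data came from 3228 arrays in the Consortium for Functional Glycomics database, and only arrays with an available protein sequence were kept. Glycan names were put into IUPAC-condensed notation, and columns mapping to the same glycan were averaged. The binding signal is a within-array Z-score, averaged across arrays of one protein sequence run at different concentrations or buffers and across linkers. A negative Z-score can be read as non-binding.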
# Man(a1-2)Man(a1-3)Man = target: Man(a1-2)Man(a1-3)Man
# Procedure, shortened: as §1
# [2] = target: Man(a1-2)Man(a1-3)[Man(a1-2)Man(a1-6)]Man
# Procedure, shortened: as §1
# [3] = target: Man(a1-2)Man(a1-3)[Man(a1-2)Man(a1-6)]Man(a1-6)[Man(a1-2)Man(a1-2)Man(a1-3)]Man
# Procedure, shortened: as §1
# [4] = target: Man(a1-2)Man(a1-3)[Man(a1-2)Man(a1-6)]Man(a1-6)[Man(a1-2)Man(a1-2)Man(a1-3)]Man(b1-4)GlcNAc(b1-4)GlcNAc
# Procedure, shortened: as §1
# [5] = target: Man(a1-2)Man(a1-3)[Man(a1-6)]Man(a1-6)[Man(a1-2)Man(a1-3)]Man(b1-4)GlcNAc(b1-4)GlcNAc
# Procedure, shortened: as §1
# [6] = target: Man(a1-2)Man(a1-6)[Man(a1-3)]Man(a1-6)[Man(a1-2)Man(a1-2)Man(a1-3)]Man
# Procedure, shortened: as §1
# [7] = target: Man(a1-2)Man(a1-6)[Man(a1-3)]Man(a1-6)[Man(a1-2)Man(a1-2)Man(a1-3)]Man(b1-4)GlcNAc(b1-4)GlcNAc
# Procedure, shortened: as §1
# Man(a1-3)[Man(a1-6)]Man = target: Man(a1-3)[Man(a1-6)]Man
# Procedure, shortened: as §1
# [8] = target: Man(a1-3)[Man(a1-6)]Man(a1-6)[Man(a1-2)Man(a1-3)]Man(b1-4)GlcNAc(b1-4)GlcNAc
# Procedure, shortened: as §1
# [9] = target: Man(a1-3)[Man(a1-6)]Man(a1-6)[Man(a1-3)]Man
# Procedure, shortened: as §1
# [10] = target: Man(a1-3)[Man(a1-6)]Man(a1-6)[Man(a1-3)]Man(b1-4)GlcNAc(b1-4)GlcNAc
# Procedure, shortened: as §1
# [11] = target: Man(a1-3)[Man(a1-6)]Man(b1-4)GlcNAc(b1-4)GlcNAc
# Procedure, shortened: as §1
# Man(a1-6)Man = target: Man(a1-6)Man
# Procedure, shortened: as §1
# Man(b1-4)GlcNAc = target: Man(b1-4)GlcNAc
# Procedure, shortened: as §1
# Neu5Ac(a2-3)Gal = target: Neu5Ac(a2-3)Gal
# Procedure, shortened: as §1
# [12] = target: Neu5Ac(a2-3)Gal(b1-3)GalNAc
# Procedure, shortened: as §1
# [13] = target: Neu5Ac(a2-3)Gal(b1-3)GalNAc(b1-3)Gal(a1-4)Gal(b1-4)Glc
# Procedure, shortened: as §1
# [14] = target: Neu5Ac(a2-3)Gal(b1-3)GalNAc(b1-3)Gal(b1-4)GlcNAc
# Procedure, shortened: as §1
# [15] = target: Neu5Ac(a2-3)Gal(b1-3)GalNAc(b1-4)[Neu5Ac(a2-3)]Gal(b1-4)Glc
# Procedure, shortened: as §1
# [16] = target: Neu5Ac(a2-3)Gal(b1-3)GalNAc6S
# Procedure, shortened: as §1
# [17] = target: Neu5Ac(a2-3)Gal(b1-3)GlcNAc
# Procedure, shortened: as §1
# [18] = target: Neu5Ac(a2-3)Gal(b1-3)GlcNAc(b1-3)Gal(b1-3)GlcNAc
# Procedure, shortened: as §1
# [19] = target: Neu5Ac(a2-3)Gal(b1-3)GlcNAc6S
# Procedure, shortened: as §1
# [20] = target: Neu5Ac(a2-3)Gal(b1-3)[Fuc(a1-4)]GlcNAc
# Procedure, shortened: as §1
# [21] = target: Neu5Ac(a2-3)Gal(b1-3)[Fuc(a1-4)]GlcNAc(b1-3)Gal(b1-3)[Fuc(a1-4)]GlcNAc
# Procedure, shortened: as §1
# [22] = target: Neu5Ac(a2-3)Gal(b1-3)[Fuc(a1-4)]GlcNAc(b1-3)Gal(b1-4)[Fuc(a1-3)]GlcNAc
# Procedure, shortened: as §1
# [23] = target: Neu5Ac(a2-3)Gal(b1-3)[Neu5Ac(a2-3)Gal(b1-4)]GlcNAc
# Procedure, shortened: as §1
# [24] = target: Neu5Ac(a2-3)Gal(b1-3)[Neu5Ac(a2-6)]GalNAc
# Procedure, shortened: as §1
# Neu5Ac(a2-3)Gal(b1-4)Glc = target: Neu5Ac(a2-3)Gal(b1-4)Glc
# Procedure, shortened: as §1
# [25] = target: Neu5Ac(a2-3)Gal(b1-4)GlcNAc
# Procedure, shortened: as §1
# [26] = target: Neu5Ac(a2-3)Gal(b1-4)GlcNAc(b1-2)Man(a1-3)[GlcNAc(b1-2)Man(b1-4)GlcNAc(b1-2)Man(a1-6)]Man(b1-4)GlcNAc(b1-4)GlcNAc
# Procedure, shortened: as §1
# [27] = target: Neu5Ac(a2-3)Gal(b1-4)GlcNAc(b1-2)Man(a1-3)[Neu5Ac(a2-6)Gal(b1-4)GlcNAc(b1-2)Man(a1-6)]Man(b1-4)GlcNAc(b1-4)GlcNAc
# Procedure, shortened: as §1
# [28] = target: Neu5Ac(a2-3)Gal(b1-4)GlcNAc(b1-3)Gal(b1-3)GlcNAc
# Procedure, shortened: as §1
# [29] = target: Neu5Ac(a2-3)Gal(b1-4)GlcNAc(b1-3)Gal(b1-4)GlcNAc
# Procedure, shortened: as §1
# [30] = target: Neu5Ac(a2-3)Gal(b1-4)GlcNAc(b1-3)Gal(b1-4)GlcNAc(b1-3)Gal(b1-4)GlcNAc
# Procedure, shortened: as §1
# [31] = target: Neu5Ac(a2-3)Gal(b1-4)GlcNAc(b1-3)Gal(b1-4)[Fuc(a1-3)]GlcNAc
# Procedure, shortened: as §1
# [32] = target: Neu5Ac(a2-3)Gal(b1-4)GlcNAc(b1-3)GalNAc
# Procedure, shortened: as §1
# [33] = target: Neu5Ac(a2-3)Gal(b1-4)GlcNAc(b1-6)[Gal(b1-3)]GalNAc
# Procedure, shortened: as §1
# [34] = target: Neu5Ac(a2-3)Gal(b1-4)GlcNAc(b1-6)[Neu5Ac(a2-3)Gal(b1-3)]GalNAc
# Procedure, shortened: as §1
# [35] = target: Neu5Ac(a2-3)Gal(b1-4)GlcNAc6S
# Procedure, shortened: as §1
# [36] = target: Neu5Ac(a2-3)Gal(b1-4)[Fuc(a1-3)]GlcNAc
# Procedure, shortened: as §1
# [37] = target: Neu5Ac(a2-3)Gal(b1-4)[Fuc(a1-3)]GlcNAc(b1-3)Gal
# Procedure, shortened: as §1
# [38] = target: Neu5Ac(a2-3)Gal(b1-4)[Fuc(a1-3)]GlcNAc(b1-3)Gal(b1-4)GlcNAc
# Procedure, shortened: as §1
# [39] = target: Neu5Ac(a2-3)Gal(b1-4)[Fuc(a1-3)]GlcNAc(b1-3)Gal(b1-4)[Fuc(a1-3)]GlcNAc(b1-3)Gal(b1-4)[Fuc(a1-3)]GlcNAc
# Procedure, shortened: as §1
binder,measurement,setting,value
"GIINTLQKYYCRVRGGRCAVLSCLPKEEQIGKCSTRGRKCCRRKK [Beta-Defensin 3 (Homo sapiens), P81534]",glycan array binding signal (z-score),[1],-0.442
same,glycan array binding signal (z-score),Man(a1-2)Man(a1-3)Man,-0.337
same,glycan array binding signal (z-score),[2],-0.276
same,glycan array binding signal (z-score),[3],-0.582
same,glycan array binding signal (z-score),[4],-0.123
same,glycan array binding signal (z-score),[5],-0.173
same,glycan array binding signal (z-score),[6],-0.461
same,glycan array binding signal (z-score),[7],-0.521
same,glycan array binding signal (z-score),Man(a1-3)[Man(a1-6)]Man,-0.232
same,glycan array binding signal (z-score),[8],-0.424
same,glycan array binding signal (z-score),[9],-0.552
same,glycan array binding signal (z-score),[10],-0.316
same,glycan array binding signal (z-score),[11],-0.327
same,glycan array binding signal (z-score),Man(a1-6)Man,-0.288
same,glycan array binding signal (z-score),Man(b1-4)GlcNAc,-0.333
same,glycan array binding signal (z-score),Neu5Ac(a2-3)Gal,0.489
same,glycan array binding signal (z-score),[12],-0.221
same,glycan array binding signal (z-score),[13],-0.407
same,glycan array binding signal (z-score),[14],-0.523
same,glycan array binding signal (z-score),[15],-0.555
same,glycan array binding signal (z-score),[16],1.18
same,glycan array binding signal (z-score),[17],-0.304
same,glycan array binding signal (z-score),[18],-0.563
same,glycan array binding signal (z-score),[19],-0.526
same,glycan array binding signal (z-score),[20],-0.248
same,glycan array binding signal (z-score),[21],-0.364
same,glycan array binding signal (z-score),[22],-0.338
same,glycan array binding signal (z-score),[23],-0.604
same,glycan array binding signal (z-score),[24],-0.172
same,glycan array binding signal (z-score),Neu5Ac(a2-3)Gal(b1-4)Glc,-0.426
same,glycan array binding signal (z-score),[25],-0.401
same,glycan array binding signal (z-score),[26],-0.608
same,glycan array binding signal (z-score),[27],-0.484
same,glycan array binding signal (z-score),[28],-0.501
same,glycan array binding signal (z-score),[29],-0.613
same,glycan array binding signal (z-score),[30],-0.664
same,glycan array binding signal (z-score),[31],-0.41
same,glycan array binding signal (z-score),[32],0.284
same,glycan array binding signal (z-score),[33],-0.341
same,glycan array binding signal (z-score),[34],-0.519
same,glycan array binding signal (z-score),[35],-0.781
same,glycan array binding signal (z-score),[36],-0.519
same,glycan array binding signal (z-score),[37],-0.497
same,glycan array binding signal (z-score),[38],-0.408
same,glycan array binding signal (z-score),[39],-0.613
